# In the supplement of paper PMC10126150:
# Sequences with one replicate were seen in a single cluster, so their values are uncertain.
# Test system: ATP
# Experiment: switch fluorescence ratio, 500 uM ATP over buffer (Cy3 cluster intensity, sum of 5 cycles each) (fold (ratio)); higher = stronger signal-on switching upon ATP binding; sequences stand for … in TCGTCGGCAGCGTCAGATGTGTATAAGAGACAGTTTTTTTTTTTTTTTTTTTTTTTTT…TC
# Settings: aptamer strand: ATP DNA aptamer (quencher-CACCTGGGGGAGTATTGCGGAGGAAGG + anchor), 100 nM annealed; ATP concentration: 500 uM; one replicate
# How it was run: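 Between each of five buffer/ATP cycles, the flow-cell was stripped with NaOH and re-annealed. Each cycle imaged Cy3-labelled switching-strand clusters, annealed to 100 nM quencher-labelled ATP aptamer on a modified Illumina MiSeq flow-cell, first in selection buffer and then after 15 min with 500 uM ATP at 22 °C. The fluorescence ratio is summed target-cycle over summed buffer-cycle Cy3 intensity per cluster, averaged per switch-domain sequence, with clusters outside 100-1000 RFU excluded.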
# 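Further: ATP exposure 15 min at 22 °C before imaging.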
row,Sequence,switch fluorescence ratio
1,TCCAACAGGT,2.06
2,CGGAGATGAT,1.02
3,TTATCACCCT,1.1
4,AGATGTTCGA,0.968
5,AATTGGTGC,1.07
6,GCCCCCAACG,1.22
7,CACACTTC,1.05
8,AGATACTCGC,1.35
9,CCACCACTTT,1.03
10,CCAAACTGGT,1.03
11,ATTGATCGGA,0.979
12,TCAACCCGCG,1.04
13,CAGACATTAC,1.6
14,GAGAAGCAAT,1
15,GTCTTGGCCG,0.978
16,CCCGAGCTGT,1.6
17,ACATAGCGTG,1.03
18,CCTAATCCGA,1.09
19,CGGATGGATA,1
20,TGGCGAAGCT,0.997
21,TCGACCGCTT,0.981
22,GGCGGCACCC,1.04
23,GCATGTAAGC,0.995

row,Sequence,switch fluorescence ratio
1,GTGTCTTCCA,1.03
2,TAAACCGGAT,1.03
3,AGTGTCGGGC,1
4,CGGGGTGACT,0.971
5,GACTCGGGTG,1.12
6,AGCCTAGACA,0.998
7,GTTTCCAGAT,0.982
8,TGGTCCGCAC,5.24
9,AGAGATCAG,0.97
10,GTCCCGGGGT,1.75
11,GTGGAAACAT,1.07
12,GCCGCGAGCT,1.04
13,GATTGTATTA,1.01
14,GGACATTAAT,1.03
15,TTTTGAATGA,1
16,GACGCGTATC,1.88
17,CATTAGTGGT,0.968
18,TGTGTCGTTA,1
19,ACATCGGCCA,1.03
20,TGAGACTG,0.972
21,ACGCGTGTGT,0.992
22,AACATCACA,1.16
23,TGCTAGTTTC,1.01

row,Sequence,switch fluorescence ratio
1,AAAAATCGTC,0.986
2,GGACTGGGAT,0.997
3,TGGGGATAA,1.01
4,CAGTTGGTGT,0.985
5,CTTTTGAGG,1.03
6,ATTTTTAAG,1.05
7,CGAAATACCG,1.06
8,TGAGTTAACC,0.984
9,AAAAAAGTCA,1.02
10,GGTTAGAGAG,0.998
11,GCTGGCGACG,1.05
12,GGGACAAGGG,1.02
13,AAACTGTTAC,1.19
14,TGCGGTATAT,1.02
15,CTGAGAGCAT,1.61
16,CAAGTGCGCA,0.984
17,AAGAGAATAA,1.09
18,GAGATGAGAT,1
19,ATTCCTCGA,1.03
20,AGGGCGGCAA,0.999
21,GGTTAAAGCT,1.1
22,CGTTGAGACG,0.95
23,TTACCTTTTA,0.988

row,Sequence,switch fluorescence ratio
1,TTGATTGTCT,1.03
2,AATTGCTGCG,1.01
3,CAGCACTTCG,0.991
4,GAAGTTAACA,0.985
5,TCATGTGAAC,1.01
6,CCCGACCCAG,1.11
7,GGGTGCTACT,0.98
8,GTTACGTATA,1.15
9,ACTAGGGTTC,1.04
10,TGGGGGCTCC,0.993
11,GGAACCAAGT,1.05
12,AGCCTTCTGA,1.25
13,GTTACGCGCT,1
14,GCCCTTGGAT,1.02
15,TAGCTTGGGT,1.02
16,CCTTGTTTGA,0.977
17,ACTGGGCGGT,1.01
18,CAACTGCCTA,1.01
19,CGGTGGTAAC,0.993
20,CCACGGTAGT,1.02
21,AGGGGGCGGA,0.937
22,CGGTCACGTA,0.937
23,GTTTTTCAAC,0.956

row,Sequence,switch fluorescence ratio
1,CATAGGGATT,1.01
2,TCGCGGGGTT,1.05
3,CATATAGCCC,0.982
4,AGGGGCAAGC,1.06
5,CCTTTATTGT,1.02
6,ACCCTGCTCT,1.01
7,TCTATTATAG,0.962
8,GCAGACCTAC,1.32
9,TTCGTTCAGA,1
10,TATAGGGCCG,0.994
11,CGGCGGGCGT,0.942
12,TGGAGAACAG,1.07
13,TGAGAAGATA,0.969
14,GATGTGCGGG,1.01
15,AATTGTGATT,0.98
16,TAACCAGCTA,1.01
17,ACAGAAGGAG,0.986
18,AATTCCCCCC,1.07
19,ATTGGGTC,0.982
20,CGGTTAGCCG,1.02
21,ATTTCATGGG,1.01
22,TTTATGGAT,0.973
23,TCGTATCAGG,1

row,Sequence,switch fluorescence ratio
1,GCTATGACTC,1.12
2,TATCGGGCGC,0.991
3,TCAACGGAGA,0.981
4,TAGCGGAGGG,0.968
5,TACGAGGTGC,1.14
6,GAGGGTTACT,1.04
7,GACTGTAGGT,1.04
8,GACTTAGGCG,1.03
9,TGGTTGGCTT,0.986
10,ATTGCTTACT,1.01
11,TCTCGTCA,1.11
12,AAAGCGCTGT,0.987
13,TGGTAGCCGG,0.986
14,AAGCAACTAG,1.62
15,CGGGATTGCG,0.98
16,TCTGTATGGG,0.959
17,TCGTCGGGAG,0.995
18,TCTACCAGGC,1.19
19,GCTCTATACC,1.06
20,GCATGGAATA,0.968
21,CCAATTACTT,0.998
22,CCAAATGAAG,0.986
23,CCAGGCAGT,1.13

row,Sequence,switch fluorescence ratio
1,AAGGGATGTT,1
2,CCGTCAGCTG,1.16
3,TCGCTATATT,1.79
4,AGTAATGGGC,1.05
5,GTCTTCGCGA,1.32
6,GGACGCAAAT,2.6
7,TTTTCTGTAC,1.07
8,TACTTAGCCT,1.08
9,GCCGGCTCTC,1.01
10,TTTCATAATA,1.04
11,AGGCAGGGGT,0.966
12,AATGGGAGTC,1
13,TATGGTCTGG,1
14,TCTCAGTTAG,0.992
15,TGGCTTTCCA,1.05
16,CTGTGGGGG,0.977
17,ATTGCGGAAA,1
18,CCAGGGTTTG,1.02
19,ATAAACAAGT,1.03
